In the supplement of paper PMC3334620:
Over roughly 33,000 sequences, “E-score (-0.5 to 0.5)” has its median near -0.032; the highest 2% begin near 0.36. The list shows a part of the results.

Each sequence was assayed against T1, Sko1 (UniProt Q02100) (assay: PBM E-score (8-mer binding enrichment) (E-score (-0.5 to 0.5)); higher = stronger / more preferred TF binding; most listed sequences are background and not binding sites). Conditions: protein concentration: 200 nM; construct: GST-full length.
T1 sequence: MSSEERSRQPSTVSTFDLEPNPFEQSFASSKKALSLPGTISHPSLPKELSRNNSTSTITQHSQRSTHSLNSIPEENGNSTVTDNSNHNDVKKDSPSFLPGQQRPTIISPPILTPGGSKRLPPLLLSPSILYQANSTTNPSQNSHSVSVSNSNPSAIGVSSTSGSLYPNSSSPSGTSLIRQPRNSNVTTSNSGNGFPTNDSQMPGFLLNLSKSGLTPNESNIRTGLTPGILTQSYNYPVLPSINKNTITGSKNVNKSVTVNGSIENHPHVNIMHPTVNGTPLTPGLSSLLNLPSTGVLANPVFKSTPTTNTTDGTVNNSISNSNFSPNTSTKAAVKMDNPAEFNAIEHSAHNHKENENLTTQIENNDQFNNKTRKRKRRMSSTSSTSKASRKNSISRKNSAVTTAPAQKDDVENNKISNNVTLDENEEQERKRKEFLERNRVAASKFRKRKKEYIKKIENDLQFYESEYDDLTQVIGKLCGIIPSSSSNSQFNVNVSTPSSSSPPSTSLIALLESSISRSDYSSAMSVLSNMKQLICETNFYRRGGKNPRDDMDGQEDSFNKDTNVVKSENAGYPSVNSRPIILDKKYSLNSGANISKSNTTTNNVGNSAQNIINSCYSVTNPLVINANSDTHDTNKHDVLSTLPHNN
How it was run: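 Masliner-normalised scans of fluorescent anti-GST signal were the basis for scoring. That signal came from GST-tagged yeast transcription factors applied at about 100-200 nM to double-stranded universal all-10-mer Agilent arrays on fresh or once-stripped slides. Each ungapped eight-base word, pooled with its reverse complement, received an E-score from the Universal PBM Analysis Suite.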

| Sequence | PBM E-score |
| --- | --- |
| GACGAGCC | 0.00634 |
| GAACTTTA | -0.043 |
| CGGCCACA | -0.184 |
| ACGACCCA | 0.087 |
| GCATGCTA | -0.0193 |
| ACATCTCT | 0.0591 |
| CTAGCTTC | -0.177 |
| AACATTTG | -0.0934 |
| AAAACGCG | 0.237 |
| GGCAAAAA | 0.108 |
| AGTCGTCA | 0.37 |
| ACCACCTC | -0.137 |
| TGGCCAAA | 0.104 |
| GGAGGGTA | -0.195 |
| CCCTACAA | 0.0161 |
| CGCCAGTA | -0.151 |
| CAGTTTCC | -0.191 |
| GATTCGCC | -0.112 |
| GATCGTAC | -0.115 |
| AAGGTCCG | -0.248 |
| ACCGGAGC | -0.243 |
| CGGCATCC | -0.202 |
| AAGCAGGT | -0.151 |
| CAACCTCG | -0.0507 |
| CGAATACG | 0.406 |

| Sequence | PBM E-score |
| --- | --- |
| CTGTAAAC | 0.106 |
| TAGAGGGA | -0.0431 |
| CGTATACC | 0.132 |
| ACGCCACA | 0.234 |
| ACCTCCCT | -0.249 |
| CTTCCCTC | -0.257 |
| AGTAAGTC | -0.144 |
| CCAATCTA | 0.0203 |
| AATCCCGC | -0.112 |
| GCCTGACA | -0.113 |
| CTATCTAC | 0.0822 |
| TCTGTGCA | 0.00064 |
| TACCAACA | 0.0643 |
| TGGAGAAA | -0.157 |
| GGTCAACC | -0.29 |
| CCTCAGCC | -0.226 |
| AGCTTTAA | 0.14 |
| GAATCGTA | 0.136 |
| GAGAGCAA | -0.0449 |
| AGATTACA | 0.189 |
| GCTAAACC | -0.0917 |
| ACTAAGAC | 0.0334 |
| GTTCGCGA | 0.133 |
| CTGTCCCA | -0.173 |
| CTCGTCAA | 0.0618 |

| Sequence | PBM E-score |
| --- | --- |
| GAGCCGCC | -0.22 |
| ACCGAGAC | -0.144 |
| AGTTATAC | 0.135 |
| GCATGTCA | 0.265 |
| GCTTCAAC | -0.164 |
| CGTCGAAA | 0.247 |
| GGCCGAAC | -0.34 |
| CCCTCCGG | -0.452 |
| CCAAAGAG | -0.148 |
| TCGTATAA | 0.221 |
| AAATAACC | 0.0207 |
| AATTTTGG | -0.00126 |
| GAGGTGAA | 0.033 |
| CAACCGTG | -0.089 |
| CCCACATC | -0.141 |
| ACGAGTAC | 0.222 |
| ATACGCCA | 0.329 |
| CACGCCCA | 0.0494 |
| AAGGAATA | 0.121 |
| CGGCGGGA | -0.232 |
| AGAGGAGG | -0.282 |
| AGATTGAT | -0.0863 |
| GCATAGTA | -0.016 |
| AAGACGTG | 0.291 |
| CATGTTGA | 0.304 |

| Sequence | PBM E-score |
| --- | --- |
| GCCGTCTA | -0.225 |
| ATCTGTCG | 0.0372 |
| CCATGCTA | -0.208 |
| TCTTCAAA | 0.052 |
| ATCCCTTA | 0.0973 |
| GCCTACCA | -0.262 |
| CACACCTG | -0.133 |
| ATAATGAG | 0.114 |
| AGGCACGG | -0.323 |
| CTCAGTTC | -0.0562 |
| AAACTGAT | -0.0582 |
| AAGTCTTA | 0.0815 |
| GTAACAAC | 0.146 |
| GGCGTGCA | -0.0639 |
| GCTAACAA | -0.0144 |
| CTAACAAA | 0.0575 |
| TACACACA | 0.285 |
| GTGCATGA | 0.133 |
| ACCATAGA | -0.123 |
| CGTCGATC | 0.219 |
| CTCATCGC | -0.11 |
| AACCAGTA | -0.088 |
| CAACTTAA | 0.114 |
| CCTGTGCG | -0.0469 |
| CGATGTTA | 0.124 |

| Sequence | PBM E-score |
| --- | --- |
| AGTAGAAA | 0.187 |
| CACTTACC | 0.109 |
| GAAGTAAC | 0.0276 |
| CGGGGAAA | 0.046 |
| TGCCATAA | -0.0922 |
| GTGCAACA | -0.0712 |
| TACCCTAA | 0.0632 |
| GTGTGATA | 0.156 |
| AGGTTTAT | 0.0336 |
| AGGGTACC | -0.263 |
| GCGACATA | 0.145 |
| AAGATGGC | 0.0108 |
| AATTCACC | 0.0082 |
| GATATCCC | -0.0229 |
| ACGGATCC | -0.241 |
| GATATGCA | -0.0234 |
| CAATGTGC | 0.0595 |
| ATGATCGA | 0.125 |
| GTCTGGAA | -0.158 |
| GACGTTAC | 0.365 |
| AAGGAGCG | -0.155 |
| ATTATGCC | 0.023 |
| AGCTACCC | -0.136 |
| CAGACATG | -0.0633 |
| ACAACCGA | -0.0634 |

| Sequence | PBM E-score |
| --- | --- |
| CGACCGTC | -0.0991 |
| AATTCACT | -0.0357 |
| AGCGCGCG | 0.0968 |
| ATTGAAGA | 0.209 |
| ATCCTCAC | 0.018 |
| AAACCTCG | -0.0477 |
| ACAGTCCT | -0.21 |
| AGTGAGAA | -0.0212 |
| GCTCGCTA | -0.00762 |
| AGTACCAT | -0.0224 |
| ATAGGAGG | -0.29 |
| TGGAATAA | 0.0262 |
| ACCACACT | -0.108 |
| TTACCCAA | -0.021 |
| CGGTATCC | -0.298 |
| CTGAGGGC | -0.195 |
| ATAAATAT | 0.221 |
| GACGAAGA | 0.209 |
| ATAATTGA | 0.184 |
| TAGTGCGA | -0.157 |
| CCCTCGCG | -0.228 |
| TAGCTTGA | -0.0368 |
| ATCCCTCC | -0.123 |
| CGTGTAAC | 0.0976 |
| TCGCACCA | -0.183 |

| Sequence | PBM E-score |
| --- | --- |
| GAGATTAC | 0.325 |
| CGCACGGA | 0.02 |
| CTACACCC | -0.143 |
| CGGTCGCC | -0.104 |
| GCGGCCAC | -0.217 |
| CTAGTTTC | -0.125 |
| GAACCGCC | -0.197 |
| TCCCCGGA | -0.35 |
| CGTTCGCC | -0.0406 |
| CAGGGGAA | -0.333 |
| CGTAAGGC | 0.263 |
| ACCTCGGC | -0.19 |
| ACAGTGCC | -0.133 |
| ACTTGTAG | 0.0787 |
| GACTTAGC | -0.149 |
| GAAAATTC | 0.0959 |
| TCCTCGAA | 0.0471 |
| ATCCGCAC | 0.0155 |
| AGACGCAT | 0.0335 |
| CCATAAAG | 0.00247 |
| ATCTTGCC | -0.0574 |
| CACAATCA | 0.0358 |
